Measured values as given in the supplement of paper PMC8728848.
Some of the results follow.

Tests used:
Assay in all cases: glycan array binding signal (z-score within array); higher = stronger binding
Conditions in all cases: glycan notation: IUPAC condensed, linker removed
[1] = target: Gal(b1-4)GlcNAc(b1-3)Gal(b1-4)GlcNAc(b1-3)Gal(b1-4)GlcNAc(b1-3)Gal(b1-4)GlcNAc(b1-2)Man(a1-3)[Gal(b1-4)GlcNAc(b1-3)Gal(b1-4)GlcNAc(b1-3)Gal(b1-4)GlcNAc(b1-3)Gal(b1-4)GlcNAc(b1-2)Man(a1-6)]Man(b1-4)GlcNAc(b1-4)[Fuc(a1-6)]GlcNAc
In short: (§1)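 Columns mapping to the same glycan were averaged after glycan names were converted to IUPAC-condensed notation. The data come from 3228 arrays in the Consortium for Functional Glycomics database, limited to those with an available protein sequence. Binding is reported as a within-array Z-score averaged across arrays of one protein sequence and across linkers.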

[2] = target: Gal(b1-4)GlcNAc(b1-3)Gal(b1-4)GlcNAc(b1-3)Gal(b1-4)GlcNAc(b1-3)Gal(b1-4)GlcNAc(b1-2)[Gal(b1-4)GlcNAc(b1-3)Gal(b1-4)GlcNAc(b1-3)Gal(b1-4)GlcNAc(b1-3)Gal(b1-4)GlcNAc(b1-6)]Man(a1-6)[Gal(b1-4)GlcNAc(b1-3)Gal(b1-4)GlcNAc(b1-3)Gal(b1-4)GlcNAc(b1-3)Gal(b1-4)GlcNAc(b1-2)Man(a1-3)]Man(b1-4)GlcNAc(b1-4)[Fuc(a1-6)]GlcNAc
In short: as §1

[3] = target: Gal(b1-4)GlcNAc(b1-3)Gal(b1-4)GlcNAc(b1-3)Gal(b1-4)GlcNAc(b1-3)Gal(b1-4)GlcNAc(b1-3)Gal(b1-4)GlcNAc(b1-2)Man(a1-3)[Gal(b1-4)GlcNAc(b1-3)Gal(b1-4)GlcNAc(b1-3)Gal(b1-4)GlcNAc(b1-3)Gal(b1-4)GlcNAc(b1-3)Gal(b1-4)GlcNAc(b1-2)Man(a1-6)]Man(b1-4)GlcNAc(b1-4)GlcNAc
In short: as §1

[4] = target: Gal(b1-4)GlcNAc(b1-3)Gal(b1-4)GlcNAc(b1-3)Gal(b1-4)GlcNAc(b1-3)Gal(b1-4)GlcNAc(b1-3)Gal(b1-4)GlcNAc(b1-2)Man(a1-3)[Gal(b1-4)GlcNAc(b1-3)Gal(b1-4)GlcNAc(b1-3)Gal(b1-4)GlcNAc(b1-3)Gal(b1-4)GlcNAc(b1-3)Gal(b1-4)GlcNAc(b1-2)Man(a1-6)]Man(b1-4)GlcNAc(b1-4)[Fuc(a1-6)]GlcNAc
In short: as §1

[5] = target: Gal(b1-4)GlcNAc(b1-3)Gal(b1-4)GlcNAc(b1-3)Gal(b1-4)GlcNAc(b1-3)Gal(b1-4)GlcNAc(b1-3)Gal(b1-4)GlcNAc(b1-2)[Gal(b1-4)GlcNAc(b1-3)Gal(b1-4)GlcNAc(b1-3)Gal(b1-4)GlcNAc(b1-3)Gal(b1-4)GlcNAc(b1-3)Gal(b1-4)GlcNAc(b1-6)]Man(a1-6)[Gal(b1-4)GlcNAc(b1-3)Gal(b1-4)GlcNAc(b1-3)Gal(b1-4)GlcNAc(b1-3)Gal(b1-4)GlcNAc(b1-3)Gal(b1-4)GlcNAc(b1-2)Man(a1-3)]Man(b1-4)GlcNAc(b1-4)[Fuc(a1-6)]GlcNAc
In short: as §1

[6] = target: Gal(b1-4)GlcNAc(b1-3)Gal(b1-4)GlcNAc(b1-3)Gal(b1-4)GlcNAc(b1-3)Gal(b1-4)GlcNAc(b1-3)Gal(b1-4)GlcNAc(b1-3)Gal(b1-4)GlcNAc(b1-2)Man(a1-3)[Gal(b1-4)GlcNAc(b1-3)Gal(b1-4)GlcNAc(b1-3)Gal(b1-4)GlcNAc(b1-3)Gal(b1-4)GlcNAc(b1-3)Gal(b1-4)GlcNAc(b1-3)Gal(b1-4)GlcNAc(b1-2)Man(a1-6)]Man(b1-4)GlcNAc(b1-4)GlcNAc
In short: as §1

[7] = target: Gal(b1-4)GlcNAc(b1-3)Gal(b1-4)GlcNAc(b1-3)GalNAc
In short: as §1

[8] = target: Gal(b1-4)GlcNAc(b1-3)Gal(b1-4)GlcNAc(b1-3)[Gal(b1-4)GlcNAc(b1-3)Gal(b1-4)GlcNAc(b1-6)]GalNAc
In short: as §1

[9] = target: Gal(b1-4)GlcNAc(b1-3)Gal(b1-4)GlcNAc(b1-6)[Gal(b1-3)]GalNAc
In short: as §1

[10] = target: Gal(b1-4)GlcNAc(b1-3)Gal(b1-4)[Fuc(a1-3)]GlcNAc(b1-3)Gal(b1-4)[Fuc(a1-3)]GlcNAc
In short: as §1

[11] = target: Gal(b1-4)GlcNAc(b1-3)GalNAc
In short: as §1

[12] = target: Gal(b1-4)GlcNAc(b1-3)[Fuc(a1-3)GlcNAc(b1-6)]Gal(b1-4)Glc
In short: as §1

[13] = target: Gal(b1-4)GlcNAc(b1-3)[Gal(b1-4)GlcNAc(b1-6)]Gal(b1-4)GlcNAc
In short: as §1

[14] = target: Gal(b1-4)GlcNAc(b1-3)[Gal(b1-4)GlcNAc(b1-6)]GalNAc
In short: as §1

[15] = target: Gal(b1-4)GlcNAc(b1-3)[GlcNAc(b1-6)]Gal(b1-4)GlcNAc
In short: as §1

[16] = target: Gal(b1-4)GlcNAc(b1-6)Gal(b1-4)GlcNAc
In short: as §1

[17] = target: Gal(b1-4)GlcNAc(b1-6)Gal(b1-4)GlcNAc(b1-6)GalNAc
In short: as §1

[18] = target: Gal(b1-4)GlcNAc(b1-6)GalNAc
In short: as §1

[19] = target: Gal(b1-4)GlcNAc(b1-6)[Gal(b1-3)]GalNAc
In short: as §1

[20] = target: Gal(b1-4)GlcNAc(b1-6)[Gal(b1-4)GlcNAc(b1-3)]GalNAc
In short: as §1

Gal(b1-4)GlcNAc6P = target: Gal(b1-4)GlcNAc6P
In short: as §1

Gal(b1-6)Gal = target: Gal(b1-6)Gal
In short: as §1

Gal3S(b1-3)GalNAc = target: Gal3S(b1-3)GalNAc
In short: as §1

B1: HPA (Helix pomatia), Q2F1K8 (protein)
chain: MQAFYSGLLLLCVVAFAAAQRVQSGKIDCGNDAGWAKVPSDDPGRDNTRELAKNITFASPYCRPPVVLLSITQLDVEQSQNLRVIARLYSVSPTGFKASCYTWHNTKVYSMSISWISIENY
Question: B1 was tested. Which “glycan array binding signal (z-score)” value [1] did it give?
Answer: The value was 0.15.

Question: What about the “glycan array binding signal (z-score)” value [2] of the same binder?
Answer: Its value is -0.055.

Question: And the “glycan array binding signal (z-score)” value [3]?
Answer: Its value is -0.076.

Question: What about the “glycan array binding signal (z-score)” value [4] of the same binder?
Answer: The value was 0.027.

Question: And the “glycan array binding signal (z-score)” value [5]?
Answer: The value was 0.604.

Question: What about the “glycan array binding signal (z-score)” value [6] of the same binder?
Answer: The value was -0.158.

Question: And the “glycan array binding signal (z-score)” value [7]?
Answer: Its value is 0.395.

Question: What about the “glycan array binding signal (z-score)” value [8] of the same binder?
Answer: Its value is 0.563.

Question: And the “glycan array binding signal (z-score)” value [9]?
Answer: The value was 0.365.

Question: What about the “glycan array binding signal (z-score)” value [10] of the same binder?
Answer: The value was -0.198.

Question: And the “glycan array binding signal (z-score)” value [11]?
Answer: The value was -0.178.

Question: And the “glycan array binding signal (z-score)” value [12]?
Answer: Its value is -0.127.

Question: What about the “glycan array binding signal (z-score)” value [13] of the same binder?
Answer: Its value is -0.259.

Question: And the “glycan array binding signal (z-score)” value [14]?
Answer: The value was -0.304.

Question: And the “glycan array binding signal (z-score)” value [15]?
Answer: Its value is -0.26.

Question: And the “glycan array binding signal (z-score)” value [16]?
Answer: Its value is -0.234.

Question: And the “glycan array binding signal (z-score)” value [17]?
Answer: The value was -0.17.

Question: What about the “glycan array binding signal (z-score)” value [18] of the same binder?
Answer: The value was -0.22.

Question: What about the “glycan array binding signal (z-score)” value [19] of the same binder?
Answer: The value was -0.255.

Question: What about the “glycan array binding signal (z-score)” value [20] of the same binder?
Answer: The value was -0.157.

Question: What about the “glycan array binding signal (z-score)” value (Gal(b1-4)GlcNAc6P) of the same binder?
Answer: The value was -0.288.

Question: What about the “glycan array binding signal (z-score)” value (Gal(b1-6)Gal) of the same binder?
Answer: Its value is -0.294.

Question: What about the “glycan array binding signal (z-score)” value (Gal3S(b1-3)GalNAc) of the same binder?
Answer: The value was 0.371.
